Reference: PubChem BioAssay AID624417 (National Center for Advancing Translational Sciences (NCATS), 2012)
Several values for one entry are separate records, joined by “and”; a condition that tells them apart may be missing. Equal values may be shown once. The whole screen tested about 410,000 compounds, of which about 6,400 (1.6%) were called active. The shares of active, inactive and inconclusive entries below differ from those in the screen. Calls follow the shape of the dose curve; as a rule, active = well fitted inhibition curve with a large enough effect; inconclusive = small, poorly fitted or top-dose-only effect; inactive = no such curve, though single readings can be large or run the other way. Potencies beside an inconclusive call are fits to weak or partial responses and may not hold up.

Target: Glucagon-like peptide 1 receptor (Homo sapiens) (UniProt P43220)
Assay: qHTS of GLP-1 Receptor Inverse Agonists (Inhibition Mode); also: nearly all actives have a fitted effect of over 55% in size
Settings: HEK293 GLP-1R CRE-luciferase, luminescence, 24 h, GLP-1R form is constitutively active; series mostly up to 38.3 µM
Method in brief: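 qHTS in 1536-well format: reporter HEK293 cells expressing constitutive GLP-1R activity in DMEM + 10% Nu serum, 24 hr with compounds at 37 deg C, luminescence read after 12 min with detection reagent.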
Potency is read from the fitted curve at half-maximal effect; tags tell the direction and shape of the fitted curve.

Sequence of UniProt P43220 (P43220 whole entry, looked up): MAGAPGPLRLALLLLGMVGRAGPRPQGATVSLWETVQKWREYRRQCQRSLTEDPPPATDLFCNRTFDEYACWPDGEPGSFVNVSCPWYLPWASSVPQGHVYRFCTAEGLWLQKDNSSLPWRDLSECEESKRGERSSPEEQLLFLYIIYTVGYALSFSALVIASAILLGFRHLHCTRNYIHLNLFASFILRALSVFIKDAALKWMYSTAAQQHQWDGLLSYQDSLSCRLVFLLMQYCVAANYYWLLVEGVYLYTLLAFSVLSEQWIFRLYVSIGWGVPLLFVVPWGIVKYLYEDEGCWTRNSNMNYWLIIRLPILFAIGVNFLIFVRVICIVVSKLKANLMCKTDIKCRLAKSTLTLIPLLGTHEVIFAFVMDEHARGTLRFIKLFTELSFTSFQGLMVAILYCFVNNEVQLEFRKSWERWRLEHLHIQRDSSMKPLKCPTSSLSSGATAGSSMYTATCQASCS

| SMILES | Potency |
| --- | --- |
| O=C1S/C(=C\c2ccccc2)C(=O)N1CC(O)Cn1c2ccccc2c2ccccc21 (stereo unspecified) | inconclusive: 28.2 µM [inhibitor, single point] |
| CCN(Cc1ccccc1)Cc1ccc(OCc2ccccc2)c(OC)c1 | inconclusive: 10 µM [inhibitor, partial curve, poor fit] |
| CC(NC(=O)c1ccc2c(c1)CCN2S(=O)(=O)c1ccccc1)c1ccccc1 (stereo unspecified) | inconclusive: 10 µM [inhibitor, partial curve] |
| Cn1cccc1C(NC(=O)c1ccccc1)C(Cl)(Cl)Cl (stereo unspecified) | inconclusive: 28.2 µM [inhibitor, single point] |
| Cn1c(-c2ccsc2)c(-c2cccs2)c2cc(-c3ccc4cc[nH]c4c3)ccc21 | inconclusive: 3.98 µM [inhibitor, full curve, poor fit] |
| O=c1c2ccccc2sn1-c1cc(S(=O)(=O)N2CCOCC2)ccc1N1CCOCC1 | inactive |
| COc1cc(C2c3cc4c(cc3OC(N3CCCCC3)C2C)OCO4)cc(OC)c1O (stereo unspecified) | inconclusive: 3.98 µM [inhibitor, partial curve, poor fit] |
| Clc1ccc(CSc2nnnn2-c2ccc3c(c2)OCO3)c(Cl)c1 | inconclusive: 28.2 µM [inhibitor, single point] |
| O=C(c1ccc2c(c1)N(Cc1ccc(F)cc1)C(=O)c1ccccc1S2(=O)=O)N1CCCC1 | inactive |
| O=C(NC1CCCc2ccccc21)c1cc(Cl)ccn1 (stereo unspecified) | inconclusive: 28.2 µM [inhibitor, single point] |
| COc1ccc(CNC(=O)c2nc(SCc3ccccc3F)ncc2Cl)cc1 | inconclusive: 22.4 µM [inhibitor, single point] |
| CCCn1ncc([C@@H]2C[C@H]3CN(Cc4cccc(Cl)c4)C(=O)[C@]34CCCN24)c1C | inconclusive: 28.2 µM [inhibitor, single point] |
| O=C(NN=Cc1c[nH]c2ccccc12)NN=Cc1c[nH]c2ccccc12 | inconclusive: 12.6 µM [inhibitor, single point] |
| CC1(C)C(N(O)C(=O)Nc2ccccc2)N(c2cccc(Cl)c2)C(=O)N1O (stereo unspecified) | inconclusive: 28.2 µM [inhibitor, single point] |
| COc1ccc2c(c1)C(=O)[C@@H](O)[C@H](c1ccc(OC)c(Br)c1)O2 | inconclusive: 10 µM [inhibitor, single point] |
| Cc1coc(C)c1C(=O)CC1(O)C(=O)N(Cc2ccccc2)c2ccccc21 (stereo unspecified) | inconclusive: 28.2 µM [inhibitor, single point] |
| Cc1ccc([C@@H]2C[C@H]3[C@@H](CN2S(=O)(=O)c2ccc(Cl)cc2)C(=O)C[C@@H](c2ccccc2F)N3S(=O)(=O)c2ccc(C)cc2)cc1 | inconclusive: 2 µM [inhibitor, full curve] |
| Cc1ccc(N2CC(O)CSC2=Nc2ccccc2)cc1 (stereo unspecified) | inconclusive: 10 µM [inhibitor, partial curve, poor fit] |
| Cn1c(=O)c([N+](=O)[O-])c(-n2cnc3ccccc32)c2ccccc21 | inconclusive: 10 µM [inhibitor, single point] |
| O=C(NCC(c1ccco1)N1CCN(c2ccccc2F)CC1)C1CCCCC1 (stereo unspecified) | inconclusive: 10 µM [inhibitor, partial curve, poor fit] |
| Cc1cc(C)cc(C(=O)OCC(=O)NC(=O)NC2CCCC2)c1 | inconclusive: 12.6 µM [inhibitor, single point] |

| SMILES | Potency |
| --- | --- |
| Cc1ccc(CNC(=O)Cc2c(C)c3c(cc(C)c4c(C)coc43)oc2=O)cc1 | inactive |
| CC(C)(CNC(=O)Cc1ccc(Cl)cc1Cl)N1CCOCC1 | inconclusive: 28.2 µM [inhibitor, partial curve, poor fit] |
| Cc1ccc2onc(CC(=O)N3CCN(c4cc(Cl)ccc4C)CC3)c2c1 | inconclusive: 10 µM [inhibitor, single point] |
| Cc1ccc(OCCNC(=O)c2ccc(C)cc2)cc1 | inconclusive: 28.2 µM [inhibitor, single point] |
| COc1ccc(N(C)S(=O)(=O)c2cccc(C(=O)Nc3nc4ccccc4[nH]3)c2)cc1 | inconclusive: 10 µM [inhibitor, single point] |
| N#Cc1cn(CC(=O)N2CCCC2)c2ccccc12 | inactive |
| CCCn1c(C)cc(C(=O)COC(=O)c2ccc[nH]c2=O)c1C | inconclusive: 0.316 µM [inhibitor, full curve, poor fit] |
| CC(C)CCNc1nc2c(c(=O)n(Cc3cccc(F)c3)c(=O)n2C)n1C | inconclusive: 8.91 µM [inhibitor, partial curve, poor fit] |
| Cc1cc(-c2ccc(C)c(S(=O)(=O)NCc3cccc(Br)c3)c2)on1 | inconclusive: 12.6 µM [inhibitor, single point] and inconclusive: 11.2 µM [inhibitor, partial curve, poor fit] |
| O=C1NN(c2ccccc2)C(=O)C1=Cc1ccccc1 | active: 3.98 µM |
| O=C(O)CCCn1cc(NC(=O)COc2cccc(Cl)c2)cn1 | inconclusive: 1 µM [inhibitor, full curve, poor fit] |
| CCCCCn1c(CCNC(=O)c2ccc(F)cc2)nc2ccccc21 | inconclusive: 11.2 µM [inhibitor, partial curve, poor fit] |
| Cc1ccc(CCC(=O)Nc2cc(Cl)ccc2Cl)o1 | inconclusive: 10 µM [inhibitor, single point] |
| CCOCCCNC(=O)c1cnc2sc(N3CCCCC3)nn2c1=O | inactive |
| CN(Cc1c(C(=O)N/N=C/c2ccccc2)nnn1-c1nonc1N)c1ccccc1 | inconclusive: 17.8 µM [inhibitor, partial curve, poor fit] |
| CCC(Oc1ccccc1)C(=O)Nc1cc(-c2cccc(C)c2)nn1-c1ccccc1 (stereo unspecified) | inconclusive: 3.16 µM [inhibitor, partial curve, poor fit] |
| Cc1ccc(-c2csc3nc4c5ccccc5c(NCCCN(C)C)nn4c(=O)c23)cc1 | inconclusive: 8.91 µM [inhibitor, partial curve] |
| O=C(CCl)Nc1ccc(S(=O)(=O)NC2=NCCCCC2)cc1 | inconclusive: 28.2 µM [inhibitor, single point] |
| O=C(Nc1nc2ccccc2[nH]1)Nc1ccccc1F | inconclusive: 6.31 µM [inhibitor, partial curve, poor fit] |
| CCOc1ccc(OCCSc2nc3ccccc3o2)cc1 | inconclusive: 28.2 µM [inhibitor, single point] |
| COc1ccc(-n2c(C)c(C(C)=O)c3cc(OC(=O)COc4ccccc4)ccc32)cc1 | inconclusive: 0.501 µM [inhibitor, full curve, poor fit] |

| SMILES | Potency |
| --- | --- |
| CCOC(=O)c1c(C(=O)OCC)c(C)n(CCc2ccccc2)c1C | inconclusive: 14.1 µM [inhibitor, partial curve, poor fit] |
| O=C(c1ccc(Cl)s1)N1CCCC(N2CCN(c3ccc(F)cc3)CC2)C1 (stereo unspecified) | inconclusive: 31.6 µM [inhibitor, partial curve, poor fit] |
| O=C(Nc1ccc(Cl)cn1)C1CCN(c2ncnc3c2nc2n3CCCCC2)CC1 | inconclusive: 11.2 µM [inhibitor, single point] |
| COc1ccc(NC(=O)CC2C(=O)N(c3cccc(OC)c3)C(=O)N2CCc2cccs2)cc1 (stereo unspecified) | inconclusive: 3.98 µM [inhibitor, partial curve, poor fit] |
| CC[C@H]1c2[nH]c3ccccc3c2C[C@@H]2C(=O)N(c3ccc(F)cc3)C(=O)N21 | inconclusive: 28.2 µM [inhibitor, single point] |
| Cc1ccc2c(c1)c1c3n2CCN(C(=O)C2CC2)C3CCC1 (stereo unspecified) | inconclusive: 8.91 µM [inhibitor, partial curve, poor fit] |
| CC(C)OC(=O)c1ccc(NC(=O)c2ccccc2)cc1 | inconclusive: 11.2 µM [inhibitor, single point] |
| CN1CCC(OC(=O)c2ccccc2Cl)CC1 | inconclusive: 3.55 µM [inhibitor, full curve, poor fit] |
| CC(=O)Nc1ccc(NC(=O)CCc2nc3cccnc3n2Cc2cccs2)cc1 | inactive |
| CS(=O)(=O)c1ccc(S(=O)CC(=O)OCc2ccccc2)c([N+](=O)[O-])c1 (stereo unspecified) | inconclusive: 28.2 µM [inhibitor, single point] |
| CCc1ccc(OC(C)C(=O)N2CCC(c3nc4ccccc4o3)CC2)cc1 (stereo unspecified) | inconclusive: 12.6 µM [inhibitor, partial curve, poor fit] |
| C=CCn1c(C)cc(C(=O)Cn2ncc(Cl)c(Cl)c2=O)c1C | inactive |
| CC(C)c1ccc(C(N)=S)cc1 | inconclusive: 10 µM [inhibitor, partial curve, poor fit] |
| O=C(CCC(F)(F)F)N1CCCC(CO)(CCc2ccccc2)C1 (stereo unspecified) | inconclusive: 28.2 µM [inhibitor, single point] |
| COc1ccc(S(=O)(=O)NCC(c2ccco2)S(=O)(=O)c2ccc(C)cc2)cc1F (stereo unspecified) | inconclusive: 10 µM [inhibitor, partial curve] |
| Cn1c(CNC(=O)c2ccccc2F)nnc1SCC(=O)N1CCN(c2ccccc2)CC1 | inactive |
| Cc1ccc(C)c(-n2c(-c3ccc(Br)cc3)csc2=NC(=O)c2ccccc2F)c1 | inconclusive: 5.62 µM [inhibitor, full curve, poor fit] |
| CCn1nc(C)c2c(-c3ccccc3)cc(=O)n(C(C)C(=O)NCCC(C)C)c21 (stereo unspecified) | inconclusive: 12.6 µM [inhibitor, single point] |
| CC(C)c1ccc(Cn2c(COc3ccccc3)nc3ccccc32)cc1 | inconclusive: 22.4 µM [inhibitor, single point] |
